Test results taken from PubChem BioAssay AID652104 (National Center for Advancing Translational Sciences (NCATS), 2013).
About 7,200 (1.8%) of roughly 410,000 compounds were called active. The inconclusive results got no clear call from the source; some entries with a clear call stand among them for comparison. Calls follow the shape of the dose curve; as a rule, active = well fitted activation curve with a large enough effect; inconclusive = small, poorly fitted or top-dose-only effect, or another doubt; inactive = no such curve, though single readings can be large or run the other way. No potency is given beside an inconclusive call; the fits are too rough.

Assay: qHTS of TDP-43 Inhibitors; also: nearly all actives have a fitted effect of over 50% in size
Settings: TDP-43 expressing yeast growth rescue, BacTiter-Glo, 24 h; series mostly up to 46.1 µM
Outline: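 Cell-based yeast growth screen: TDP-43 expression induced in galactose, inoculum OD600=0.02 after raffinose pregrowth to mid-log. Read-out BacTiter-Glo luminescence at 24 hr, 30 deg C; inhibition of toxicity seen as signal increase.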
Potency is read from the fitted curve at half-maximal effect; tags tell the direction and shape of the fitted curve.

| Structure (SMILES) | Potency |
| --- | --- |
| Cc1ccc(S(=O)(=O)Cc2ccc(C(=O)N3CCc4ccccc4C3)o2)cc1 | inconclusive [activator, partial curve] |
| CN(C(=O)c1cccc(NC(=O)Cc2cccc([N+](=O)[O-])c2)c1)C1CC1 | inconclusive [activator, partial curve] |
| Cc1ccc(Oc2ccccc2/C=N/O)cc1 | inconclusive [activator, partial curve] |
| CCC1CCCCN1C(=O)COc1ccc2c3c(c(=O)oc2c1)CCC3 (stereo not drawn) | inconclusive [activator, single point] |
| COCCNC(=O)c1ccc(NC(=O)C2(c3ccccc3)CCCC2)cc1 | inactive |
| COc1ccccc1NC(=O)C(C(C)C)N1C(=O)c2ccccc2C1=O (stereo not drawn) | inconclusive [activator, partial curve] |
| Cc1cc2c(NC3CCCCC3)ncnc2s1 | active: 11.2 µM |
| Cn1c(NCC2CCCCC2)nc2cc(-c3ccsc3)sc2c1=O | active: 20 µM |
| CCCSc1nnc2c(n1)OC(c1sccc1C)Nc1ccccc1-2 (stereo not drawn) | inactive |
| CC(C)NS(=O)(=O)c1ccc(CCC(=O)N2CCCC2)cc1 | inactive |
| COc1cc(C(c2c(C)[nH][nH]c2=O)c2c(C)[nH][nH]c2=O)ccc1OC(=O)c1cccc(C)c1 | inconclusive [activator, partial curve] |
| Nc1ccc(N2CCCCC2)c2nonc12 | inactive |
| O=[N+]([O-])c1ccc(/C=N/NC(=S)Nc2ccc(Cl)cc2Cl)s1 | inconclusive [activator, partial curve] |
| CCOC(=O)c1c(N)sc(-c2ccccc2)c1C | inconclusive [activator, single point] |
| Cc1cccc(-n2ccnc2SCC(=O)Nc2ccc3c(c2)OCCO3)c1 | inconclusive [activator, partial curve] |
| C[C@@H]1ON(C)[C@H]2C[C@H]3c4[nH]c5ccc(-c6ccc7c(c6)OCO7)cc5c4CCN3C(=O)[C@@H]12 | inconclusive [activator, single point] |
| Cc1cc(NC(=O)COC(=O)c2ccc([N+](=O)[O-])cc2Cl)no1 | inconclusive [activator, partial curve] |
| CC1(C)CC2(CCO1)OC(=O)CC2C(=O)Nc1cccc2ccccc12 (stereo not drawn) | inconclusive [activator, partial curve] |
| CC(=O)Nc1nc2c(s1)CCc1ccccc1-2 | inactive |
| CC(C)(C)c1ccc(OCCn2cc(C(=O)c3ccco3)c3ccccc32)cc1 | inactive |
| COc1ccccc1N1CCN(C(CNC(=O)C(=O)NCc2ccc(C)cc2)c2cccnc2)CC1 (stereo not drawn) | inactive |
| O=C(/C=C/c1c(F)cccc1Cl)Nc1cccnc1 | inconclusive [activator, partial curve] |
| CS(=O)(=O)Nc1ccccc1-c1cccc2nccn12 | inconclusive [activator, partial curve] |
| Fc1cccc(Cc2c(-c3ccccc3)nc3c4ccccc4ccn23)c1 | active: 14.1 µM |

| Structure (SMILES) | Potency |
| --- | --- |
| COC(=O)C1=CN(c2cc(C)cc(C)c2)C=C(C(=O)OC)C1c1cccc(F)c1 | inactive |
| Cc1ccc(CSCC(=O)Nc2ccc(N3CCOCC3)cc2N2CCOCC2)cc1 | inconclusive [activator, partial curve] |
| O=C(c1ccccc1)N1CCN(c2ccc([N+](=O)[O-])cc2-n2cccc2)CC1 | inconclusive [activator, partial curve] |
| Cc1ccc(C2=CC(c3ccccc3F)n3c(nc4ccccc43)N2)cc1C (stereo not drawn) | inconclusive [activator, single point] |
| CCCOc1ccc(CSCCNC(=S)Nc2ccccc2)cc1 | inactive |
| O=C(CSc1ccc2c(c1)OCCO2)NC(=O)NC1CCCC1 | inconclusive [activator, single point] |
| CCCCCCCSc1nnc(-c2ccccc2N)c(=O)[nH]1 | inconclusive [activator, single point] |
| Cc1cccc(N2CC(C(=O)OCC(=O)c3ccc(OC(=O)c4cccs4)cc3)CC2=O)c1C (stereo not drawn) | inconclusive [activator, partial curve] |
| O=C(NC(=S)Nc1ccc(Br)c(Cl)c1)C1CC1 | inconclusive [activator, partial curve] |
| O=C1C2ON(c3ccc(Cl)cc3)C(c3ccco3)C2C(=O)N1c1ccccc1 (stereo not drawn) | inconclusive [activator, single point] |
| Cc1cccc(-n2c(-c3csc(C)c3C)n[nH]c2=S)c1 | inconclusive [activator, single point] |
| CC(C)CCn1c(=O)c2sccc2n2c(CCCC(=O)NC(C)C)nnc12 | inactive |
| COC(=O)c1ccc(NC(=O)c2snnc2-c2ccccc2)cc1 | inconclusive [activator, single point] |
| COc1cc(Cl)c(C)cc1NC(=O)c1cc2c(Cl)nc3ccc(C)cc3c2s1 | inactive |
| COc1ccccc1C(=O)c1c(C)c(CCC#N)n2ccccc12 | inactive |
| COc1cc2c(cc1OC)CN(C(=O)Nc1ccccc1Cl)CC2 | active: 11.2 µM |
| O=C(CSc1nnc(-c2ccc(O)cc2)o1)c1ccc(Br)cc1 | inactive |
| CC(=O)C(C)Oc1cc(C)cc2oc(=O)c(C)c(C)c12 (stereo not drawn) | inactive |
| COc1ccccc1C(=O)Nc1c(C(=O)N(C)Cc2ccccc2)sc2nc(C)c(Cl)c(C)c12 | inconclusive [activator, single point] |
| CC(=O)OCC(=O)Nc1ccc(N=Nc2ccccc2)cc1 | active: 11.2 µM |
| Cc1cc(Br)cn2c(Cc3cccc(F)c3)c(-c3cccc(Br)c3)nc12 | inactive |
| O=C(NO)c1ccc(C(=O)N(C2CCCCC2)C2CCCCC2)cc1 | inconclusive [activator, single point] |
| CN(C(=O)C1Cc2c(-c3ccc(Cl)cc3)ccnc2O1)c1ccccc1 (stereo not drawn) | active: 22.4 µM |
| CC(C)CCOc1ccc(C(=O)O)cc1 | inconclusive [activator, partial curve] |
